Source: the supplement of paper PMC3656093
“And” between values parts separate entries of the source, which are not always exact repeats. Equal entries are not always repeated. ± gives the standard deviation of the averaged measurements. Over roughly 1,900 compounds, “CD40L-induced NF-kB luciferase activity, plate-corrected, relative to DMSO (0) and IKK inhibitor VII (-100) controls” has its median near 0.032; the lowest 2% begin near -26. The list shows a part of the results.

What follows are compounds tested on BL2-NFkB-Luc (assay: CD40L-induced NF-kB luciferase activity, plate-corrected, relative to DMSO (0) and IKK inhibitor VII (-100) controls (% normalized activity); higher = more NF-kB reporter activity (less inhibition)). Details: 9.4 µM; stimulus: tCD40L 64 ng/ml; 4.5 h.
Description: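 BL2 B cells with a stable NF-kB response-element luciferase reporter (BL2-NFkB-Luc), 384-well. Cells were pre-incubated with compound at 9.4 uM for 1 h at 37 C, then stimulated with 64 ng/ml trimerized CD40L for 4.5 h; luciferase was read with Steady-Glo. Signal was normalised per plate in Genedata (median DMSO neutral control = 0, median IKK inhibitor VII at 50 uM = -100) with Assay Median plate-pattern correction; duplicate plates.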

SMILES	CD40L-induced NF-kB luciferase activity
C=C1[C@@H](C)[C@H]2[C@H](Cc3ccccc3)NC(=O)[C@]23OC(=O)C=C[C@H](O)CCC[C@@H](C)CC=C[C@H]3[C@@H]1O	-1.12 ± 2.1
CCCC(=O)OCC[N+](C)(C)C	-5.48 ± 4.7
CC(=O)c1ccc(-c2ccccc2)cc1	32.8 ± 15
CN(C)C(=O)Oc1cccc([N+](C)(C)C)c1	1.42 and 0.748
CNC(=O)Oc1ccc2c(c1)[C@]1(C)CCN(C)[C@@H]1N2C	-0.043 ± 7.8
CCN(CC)CCOC(=O)C(O)(c1ccccc1)c1ccccc1	-6.57 ± 6.9
Cc1ccc2c(c1)C1CN(C)CCC1N2C(=O)Nc1cccc(Cl)c1 (configuration not stated)	-6.16 ± 2.1
C[C@]12CC[C@@H]3c4ccc(O)c(O)c4CC[C@H]3[C@@H]1CC[C@@H]2O	-22.9 ± 18
O=C1C=Cc2ccccc2C1=O	4.88 ± 5.5
Cc1cc(Cl)ccc1OC(C)C(=O)O (configuration not stated)	-1.09 ± 4.6
CC(=O)Nc1cc([As](=O)(O)O)ccc1O	-3.64 ± 1.8
O=c1[nH]c2ccccc2n1C1CCN(CCCC(c2ccc(F)cc2)c2ccc(F)cc2)CC1	-6.94 ± 4.2
CC(C)C[C@H]1C(=O)N2CCC[C@H]2[C@]2(O)O[C@](NC(=O)[C@@H]3C=C4c5cccc6[nH]c(Br)c(c56)CC4N(C)C3)(C(C)C)C(=O)N12 (some centres not stated)	3.22 ± 1.5
CC12CN3CC(C)(CN(C1)C3c1cccnc1)C2=O (configuration not stated)	0.834 ± 3.5
C[C@]12CCC(=O)C=C1CCC1C2CC[C@@]2(C)C1CC[C@@]2(O)CC#N (some centres not stated)	-0.607 ± 3.7
CN[C@H](C)[C@H](O)c1ccccc1	-2.12 ± 1.3
CN(C)C(=O)Oc1ccc[n+](C)c1	1.38 ± 1.9
NC1CCCCC1N.[Cl][Pt][Cl] (configuration not stated)	2.03 ± 0.47
O=Cc1cn(Cc2ccc(F)cc2)c2ccccc12	3.44 ± 1.6
CC(C)C(=O)Nc1ccc(S(=O)(=O)N2CC3CC(C2)c2cccc(=O)n2C3)cc1 (configuration not stated)	-4.66 ± 7
c1ccc2c(c1)[nH]c1cnccc12	-5 ± 7.4
COc1ccccc1CN1CCCCC1c1cccnc1 (configuration not stated)	-4.15 ± 3.3
CC12CN3CC(C)(CN(C1)C3c1cccs1)C2=O (configuration not stated)	2.17 ± 3.5
Nc1ccc([As](=O)(O)O)cc1	-6.29 ± 2.6

SMILES	CD40L-induced NF-kB luciferase activity
C[C@H]1OC[C@@H](C[N+](C)(C)C)O1	-0.99 ± 1.9
O=C1CSC2N1CCNC21CCCCC1 (configuration not stated)	-1.57 ± 5.5
COc1cccc(Oc2c(C)oc3cc(OC(=O)N(C)C)ccc3c2=O)c1	-9.76 ± 10
COc1ccc(CN2CC3CC(C2)c2cccc(=O)n2C3)cc1OC (configuration not stated)	-5.62 ± 3.4
COc1ccc(OC)c(C(O)C(C)N)c1 (configuration not stated)	0.245 ± 1.3
CCCC(C)(COC(N)=O)COC(=O)NC(C)C (configuration not stated)	-7.09 ± 4.2
CN1[C@@H]2CC[C@H]1CC(OC(=O)C1C=Nc3ccccc31)C2 (some centres not stated)	-2.21 ± 6.7
Oc1ccc(Cl)cc1Cc1cc(Cl)ccc1O	2.81 ± 3.4
C[C@]12CCC(=O)C=C1CC[C@@H]1[C@@H]2CC[C@]2(C)C(=O)CC[C@@H]12	6.57 ± 1.3
OC(c1ccccc1)(c1ccccc1)C1CCNCC1	-5.63 ± 0.48
COc1ccc(-c2nc3ccccc3c(=O)o2)cc1	47.1 ± 21
CCOc1ccc(N2C(=O)NC(=O)/C(=C\c3cc(OC)c(OC)cc3[N+](=O)[O-])C2=O)cc1	-5.57 ± 0.58
CC(C)CCC1(CN2CCCC2=O)C(=O)NC(=O)NC1=O	-4.01 ± 4.5
CC(=O)[C@H]1CC[C@H]2[C@@H]3CC[C@H]4C[C@H](O)CC[C@]4(C)[C@H]3C(=O)C[C@]12C	2.9 ± 3.8
COc1ccc(NC2=NCC(C)S2)cc1 (configuration not stated)	6.63 ± 2
c1ccc2c3c([nH]c2c1)CNCC3	-0.0865 ± 4.1
CCN(CC)C(=O)N[C@H]1C[C@@H]2c3cccc4[nH]cc(c34)C[C@H]2N(C)C1	-15 ± 8.3
CC[C@@H](CO)NC(=O)[C@@H]1C=C2c3cccc4c3c(cn4C)C[C@H]2N(C)C1	6.16 ± 0.15
CC12CN3CC(c4ccccc4)(CN(C1)C31CCCCC1)C2=O	-3.79 ± 3.9
c1ccc2c(c1)OCC(C1=NCCN1)O2 (configuration not stated)	-12.6 ± 6.5
CC[N+]1(C)CCCC(OC(=O)C(O)(c2ccccc2)c2ccccc2)C1 (configuration not stated)	-3.33 ± 1.4
C[C@H]1CCCC(=O)CCCCCc2cc(O)cc(O)c2C(=O)O1	-0.417 ± 2.4
CN1C[C@H](CNC(=O)OCc2ccccc2)C[C@@H]2c3cccc4c3c(cn4C)C[C@H]21	4.02 ± 2.5
O=C1NCCN2CCCC12 (configuration not stated)	5.53 ± 4.5

SMILES	CD40L-induced NF-kB luciferase activity
OCc1cnc[nH]1	0.917 ± 1.7
O=c1c2ccccc2nc(/C=C/c2ccc3c(c2)OCO3)n1-c1ccccc1	2.16 ± 1.9
C=C1CC[C@@]2(O)[C@H]3Cc4ccc(O)c5c4[C@@]2(CCN3CC2CC2)[C@H]1O5	1.69 ± 3.1
O=C(CCCN1CCC2(CC1)C(=O)NCN2c1ccccc1)c1ccc(F)cc1	-1.12 ± 5.6
C=CC1CN2CCC1CC2[C@@H](OC(=O)c1ccc(OC)cc1)c1ccnc2ccccc12 (some centres not stated)	1.56 ± 2.6
NCCc1c[nH]c2ccc(F)cc12	3.72 ± 5.3
Cc1ccc(/C=C2/C(=O)NC(=O)N(C)C2=O)cc1	0.524 ± 0.61
CCOC(=O)c1cncn1C(C)c1ccccc1 (configuration not stated)	-5.88 ± 4.6
c1cnc2c(c1)ccc1ncccc12	7 ± 1.8
CCn1c(O)c(C(=O)CC2NCCc3ccccc32)c(=O)n(CC)c1=S (configuration not stated)	5.93 ± 5
O=C1CC[C@@]2(O)[C@H]3Cc4ccc(O)c5c4[C@@]2(CCN3CC2CC2)[C@H]1O5	-8.23 ± 1.6
C[C@H]1CCCC(=O)CCCC=Cc2cc(O)cc(O)c2C(=O)O1	-13.7 ± 1
NCC1(c2ccc3c(c2)OCCO3)CCCC1	-4.25 ± 5.6
CN1C(=O)CN=C(c2ccc(Cl)cc2)c2cc(Cl)ccc21	0.372 ± 5.5
CCC1(c2ccccc2)C(=O)N(COC)C(=O)N(COC)C1=O	-30.1 ± 1.2
O=c1cccc2n1C[C@H]1C[C@@H]2CN2CCCC[C@@H]12	-0.568 ± 1.9
c1ccc(Cn2ccnc2)cc1	0.751 ± 1.6
CC(C)C[C@H]1C(=O)N2CCCC2[C@]2(O)O[C@](NC(=O)[C@@H]3C=C4c5cccc6[nH]cc(c56)CC4N(C)C3)(C(C)C)C(=O)N12 (some centres not stated)	0.994 ± 0.31
CC(C)[C@H]1C(=O)N2CCC[C@H]2[C@]2(O)O[C@](NC(=O)[C@@H]3C=C4c5cccc6[nH]cc(c56)C[C@H]4N(C)C3)(C(C)C)C(=O)N12	-3.13 ± 6.7
CC(C)(C)C(O)C(Oc1ccc(Cl)cc1)n1cncn1 (configuration not stated)	-8 ± 8.5
c1ccc2c(c1)Nc1ccccc1S2	9.06 ± 2
O=c1c2ccccc2[se]n1-c1ccccc1	2.41 ± 3.7
C[N+]1(C)C2CCC1CC(OC(=O)C(CO)c1ccccc1)C2 (configuration not stated)	-0.877 ± 0.48
C[C@H]1CC[C@@]2(C)[C@@H](CC[C@@H]3[C@@H]2CC[C@]2(C)[C@@H](O)CC[C@@H]32)C1	5.1 ± 1.3
